Among all 48,000 compounds or so, about 120 (0.25%) were called active. Roughly 4% stayed inconclusive and do not appear here. The call rests on the fitted dose curve; in most records, active means well fitted activation curve with a large enough effect; inconclusive means small, poorly fitted or top-dose-only effect, or another doubt; inactive means no such curve, though single readings can be large or run the other way. This is one part of the list.
Assay: Primary qHTS for Identification of Small Molecule Activators of Huntingtin-Antisense Promoter Activity; further: nearly all actives have a fitted effect of over 55% in size
Conditions: HEK293 HTT-AS promoter firefly luciferase reporter (activity 0% = vehicle and -100% = no light), 24 h; series mostly up to 57.5 µM; activity change, positive = activation: at the top concentration
Procedure, shortened: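 HEK293 luciferase promoter-reporter cells (2,500/well) plated 24 h, then compounds added at up to 57.5 uM final for 24 h at 37 °C. Firefly luminescence by Dual-Glo, normalized to vehicle (0%) and zero RLU (-100%).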

Compound | activity change, positive = activation
COc1ccc(S(=O)(=O)N(CCc2ccccc2)CC(=O)Nc2cc(C)ccc2C)cc1 | inactive: -21.5%
CCc1ccc(NC(=O)C2CCN(S(=O)(=O)c3c(C)noc3/C=C/c3cccs3)CC2)cc1 | inactive: -22.5%
CCn1cc(C(=O)NCCOC)c(=O)c2cc(S(=O)(=O)N3CCOCC3)ccc21 | inactive: -6.21%
CCSc1nnc2c(n1)OC(c1ccc(OCC(=O)O)cc1)Nc1ccccc1-2 (stereo unspecified) | inactive: 1.7%
O=C(CCC1N=C2c3ccccc3N=C(SCC(=O)Nc3ccccc3F)N2C1=O)NCc1cccs1 (stereo unspecified) | inactive: -3.01%
CCOC(=O)C1=C(c2ccccc2)Nc2ncnn2C1c1ccc(Cl)cc1 (stereo unspecified) | inactive: -16.2%
COc1ccc(CNC(=O)c2ccc3c(c2)NC(=O)C(CS(=O)(=O)Cc2ccccc2Cl)N3)cc1 (stereo unspecified) | inactive: -22.3%
CCOc1ccccc1CNC(=O)CN1C(=O)CCn2nc(-c3cn(C)c4ccccc34)cc21 | inactive: -17.7%
O=C(c1ccc2c(c1)N(Cc1cccc(Cl)c1)C(=O)c1ccccc1S2(=O)=O)N1CCC(Cc2ccccc2)CC1 | inactive: -24.2%
COc1cc(Cl)c(C)cc1Nc1c2c(nc3ccccc13)CCC2 | inactive: -43.1%
Cc1nc2ccc(S(=O)(=O)N(CC(=O)Nc3ccc(Cl)cc3)Cc3ccccc3)cc2s1 | inactive: -29.7%
CCOC(=O)c1cccc(NS(=O)(=O)c2c(C)nc3sc(C)cn3c2=O)c1 | inactive: -31.3%
CC(C)CCNC(=O)c1cccc(-n2cnc3cccnc32)c1 | inactive: -21.5%
Cc1ccc(C)c(N2CCN(S(=O)(=O)c3ccc4c(c3)CC(=O)N4C)CC2)c1 | inactive: -2.45%
Cc1ccc(C(=O)COC(=O)c2cccc(NC(=O)c3ccc(Br)cc3)c2)cc1 | inactive: -41.4%
COc1cccc(CNC(=O)Cn2c(SCC(=O)Nc3ccc(F)cc3)nc3ccccc32)c1 | inactive: -27.4%
Cc1ccc2c(c1)-c1c(c(C(=O)NCCc3ccccc3)nn1C)CS2 | inactive: -14.5%
Cc1cccc(CS(=O)(=O)Cc2ccc(C(=O)NC(C)c3ccccc3)o2)c1 (stereo unspecified) | inactive: -11.9%
CCCN(C(=O)Cc1c(C(=O)O)[nH]c2ccc(Cl)cc12)c1ccc(OCC)cc1 | inactive: -6.86%
CCOCCCNC(=O)c1[nH]c2cc(OC)ccc2c1Sc1ccccc1 | inactive: -3.17%
COc1ccc(CCC(=O)NCc2nc3cccnc3n2Cc2ccc(C)cc2)cc1 | inactive: -17.6%
Cc1ccc(S(=O)(=O)NCC(c2ccco2)N2CCN(c3ccccc3F)CC2)cc1 (stereo unspecified) | inactive: -25.9%
COc1ccccc1C(=O)Nc1ccccc1SCc1cc(=O)c2ccccc2[nH]1 | inactive: -2.13%
CCN(CC)C(=O)Cn1c(=O)n(CCCCCC(=O)NCc2ccccc2)c(=O)c2sccc21 | inactive: 1.95%
O=C(c1ccc2c(c1)N(Cc1ccccc1F)C(=O)c1ccccc1S2=O)N1CCCCC1 (stereo unspecified) | inactive: -22.2%
c1cc(CN2CCCCC2)cc(OCCCNc2nc3ccccc3s2)c1 | inactive: -4.26%

From PubChem BioAssay AID1508624 (National Center for Advancing Translational Sciences (NCATS), 2021)
